The record followed here is the supplement of paper PMC3334620.

In all, about 33,000 sequences were measured (“E-score (-0.5 to 0.5)”: median about -0.053, highest 2% from about 0.37 on). The list shows a part of the results.

UniProt P0CE41, sequence (P0CE41 whole entry, the tested form may be a part): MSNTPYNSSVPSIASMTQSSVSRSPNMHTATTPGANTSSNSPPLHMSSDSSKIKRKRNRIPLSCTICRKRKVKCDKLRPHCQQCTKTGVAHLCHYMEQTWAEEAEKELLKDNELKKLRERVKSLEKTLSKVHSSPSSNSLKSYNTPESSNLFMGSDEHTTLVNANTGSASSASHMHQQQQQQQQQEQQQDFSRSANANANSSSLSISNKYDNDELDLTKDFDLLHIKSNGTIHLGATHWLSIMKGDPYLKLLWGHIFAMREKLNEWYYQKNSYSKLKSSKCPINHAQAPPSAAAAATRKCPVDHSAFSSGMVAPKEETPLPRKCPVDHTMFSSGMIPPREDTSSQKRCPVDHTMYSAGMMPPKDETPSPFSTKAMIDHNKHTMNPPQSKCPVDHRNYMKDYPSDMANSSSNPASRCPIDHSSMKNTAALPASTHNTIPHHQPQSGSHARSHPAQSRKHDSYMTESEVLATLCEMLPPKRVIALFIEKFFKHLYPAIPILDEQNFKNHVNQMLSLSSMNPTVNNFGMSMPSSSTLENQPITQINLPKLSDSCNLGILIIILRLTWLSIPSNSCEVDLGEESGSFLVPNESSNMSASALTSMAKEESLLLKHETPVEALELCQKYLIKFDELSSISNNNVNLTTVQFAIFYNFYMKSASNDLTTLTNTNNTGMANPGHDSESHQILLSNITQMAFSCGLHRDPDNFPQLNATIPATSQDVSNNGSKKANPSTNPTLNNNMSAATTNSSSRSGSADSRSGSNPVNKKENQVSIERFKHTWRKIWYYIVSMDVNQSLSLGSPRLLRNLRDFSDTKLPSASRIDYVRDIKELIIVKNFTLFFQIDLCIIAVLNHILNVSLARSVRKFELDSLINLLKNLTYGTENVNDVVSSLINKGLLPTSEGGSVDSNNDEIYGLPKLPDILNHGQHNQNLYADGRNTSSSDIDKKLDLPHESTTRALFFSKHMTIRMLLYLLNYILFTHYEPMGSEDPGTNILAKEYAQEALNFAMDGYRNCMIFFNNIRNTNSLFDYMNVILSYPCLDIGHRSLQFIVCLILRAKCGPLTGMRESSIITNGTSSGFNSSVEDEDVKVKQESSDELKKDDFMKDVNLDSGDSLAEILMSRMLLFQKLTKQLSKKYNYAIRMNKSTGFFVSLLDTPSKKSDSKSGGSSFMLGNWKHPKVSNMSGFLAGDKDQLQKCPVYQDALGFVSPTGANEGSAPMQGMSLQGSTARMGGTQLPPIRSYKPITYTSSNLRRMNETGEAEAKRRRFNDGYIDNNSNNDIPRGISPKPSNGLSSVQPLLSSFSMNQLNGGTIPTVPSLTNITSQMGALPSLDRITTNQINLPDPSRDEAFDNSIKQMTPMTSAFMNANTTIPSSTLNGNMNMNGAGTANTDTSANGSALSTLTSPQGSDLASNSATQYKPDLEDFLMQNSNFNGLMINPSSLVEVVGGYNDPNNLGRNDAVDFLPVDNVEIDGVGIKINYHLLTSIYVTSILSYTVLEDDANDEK

In the test the target is Hap1 (UniProt P0CE41). Description: PBM E-score (8-mer binding enrichment) (E-score (-0.5 to 0.5)); higher = stronger / more preferred TF binding; most listed sequences are background and not binding sites. The settings on record: protein concentration: 200 nM; construct: GST-DNA-binding domain. A digest of the protocol:
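PURExpress in vitro transcription/translation supplied GST-tagged yeast transcription factors, either full-length or DNA-binding domain. Applied at about 100-200 nM to universal all-10-mer Agilent arrays double-stranded by primer extension, the bound protein was detected with fluorescent anti-GST. E-scores, modified Wilcoxon-Mann-Whitney statistics, were given by the Universal PBM Analysis Suite to ungapped eight-base words pooled with their reverse complements after masliner normalisation.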
On to AATGACAA, for which the “PBM E-score” value was -0.147.

AACTTCTA: the “PBM E-score” value was -0.187.

On to TAATACCA, for which the “PBM E-score” value amounted to 0.0482.

Take AGCGTCGG: the “PBM E-score” value was found to be 0.208.

On to ACAGAGAG, for which the “PBM E-score” value is -0.328.

On to CCAGTTTA, for which the “PBM E-score” value is -0.113.

Regarding CGCAGGCG, the “PBM E-score” value was -0.208.

As for ACGAGACC, the “PBM E-score” value was found to be 0.0348.

In the case of CCATGTTA, the “PBM E-score” value is -0.184.

For the sequence AGCGATAG, the “PBM E-score” value stood at 0.119.

Regarding CCTCGTAA, the “PBM E-score” value was -0.00632.

As for AGAGACGG, the “PBM E-score” value is 0.068.

On to AGGTGTGA, for which the “PBM E-score” value is -0.211.

On to AAGAGGGA, for which the “PBM E-score” value is -0.278.

Turning to ATAGCAAC, the “PBM E-score” value was -0.0895.

As for CGACGCAA, the “PBM E-score” value amounted to 0.054.

In the case of TCGCCGCA, the “PBM E-score” value was 0.206.

For the sequence ACTAGTGG, the “PBM E-score” value is -0.0848.

Take AGTCTGTC: the “PBM E-score” value is -0.23.

Turning to ATACGTTG, the “PBM E-score” value is -0.24.

For the sequence CGCATCAC, the “PBM E-score” value is -0.0968.

As for ATCTCGCC, the “PBM E-score” value is 0.0687.

On to TCCGGCCA, for which the “PBM E-score” value stood at 0.354.

Turning to AAAGATCT, the “PBM E-score” value was -0.166.

As to TACTTATA, the “PBM E-score” value was -0.12.

In the case of CATGTCGA, the “PBM E-score” value is -0.113.

With TAATTTGA, the “PBM E-score” value was -0.145.

Regarding AAACCTTT, the “PBM E-score” value turned out to be 0.0857.

In the case of CCAGTTCC, the “PBM E-score” value was 0.127.

For TATAGCCA, the “PBM E-score” value is -0.106.

Turning to CGGCGGCA, the “PBM E-score” value amounted to 0.231.

For CGGCAGTC, the “PBM E-score” value was determined as 0.0246.

TCAGTCCA: the “PBM E-score” value is -0.357.

Take CTTTGAAA: the “PBM E-score” value is -0.237.

With GCTGTCCA, the “PBM E-score” value was -0.0659.

AACCAATT: the “PBM E-score” value is -0.0914.

As for AAGCTAGT, the “PBM E-score” value was -0.0846.

Turning to CGTCAAAC, the “PBM E-score” value is -0.0497.

Regarding AACCGCTA, the “PBM E-score” value stood at 0.0737.

Consider ATCAATAA, for which the “PBM E-score” value was -0.0144.

With CGCTGCGC, the “PBM E-score” value was 0.00087.

AAGTCGAA: the “PBM E-score” value is -0.189.

As to AACTAGAT, the “PBM E-score” value turned out to be 0.0194.

Consider GACGGCGC, for which the “PBM E-score” value worked out at 0.0831.

As for AGCGCAAA, the “PBM E-score” value was -0.0067.

Take GAACATCC: the “PBM E-score” value came out at 0.23.

Consider CCCATACC, for which the “PBM E-score” value is -0.0126.

Consider CTGTACCA, for which the “PBM E-score” value was -0.279.

For AATGCTGC, the “PBM E-score” value is -0.12.

Regarding CACGCGTA, the “PBM E-score” value is -0.0404.

In the case of ATGACGTG, the “PBM E-score” value is -0.182.

For GACCACGA, the “PBM E-score” value was -0.159.

For ACGAAGCC, the “PBM E-score” value is 0.00312.

Consider TCTATGCA, for which the “PBM E-score” value was -0.32.

As for ACACTAAG, the “PBM E-score” value is -0.214.

Take GTGCTAGA: the “PBM E-score” value was -0.244.

GGAAAAAC: the “PBM E-score” value worked out at 0.0691.

With GGCATTCA, the “PBM E-score” value was -0.0145.

Consider GCAGTGAC, for which the “PBM E-score” value was -0.101.

As to ATCTGGAA, the “PBM E-score” value was -0.11.

As for CCGTACAC, the “PBM E-score” value was 0.0113.

Consider CAAGGGGG, for which the “PBM E-score” value is -0.244.

As for GCCACGCA, the “PBM E-score” value is -0.184.

Consider AAGTGTGA, for which the “PBM E-score” value was -0.292.

CGTCCTAC: the “PBM E-score” value was -0.0358.

TCCTTACA: the “PBM E-score” value is -0.00686.

AGACCAGG: the “PBM E-score” value was -0.00335.

For ATAGTAAT, the “PBM E-score” value amounted to 0.0781.

With AGTTACAA, the “PBM E-score” value worked out at 0.0599.

With CGCAGCCC, the “PBM E-score” value was -0.00814.

Take GGCCGACA: the “PBM E-score” value was 0.383.

Regarding GGACAGCC, the “PBM E-score” value is 0.206.

Regarding AGCGGCCG, the “PBM E-score” value was 0.325.

CGGCTTCC: the “PBM E-score” value was found to be 0.133.

On to AACCCTCA, for which the “PBM E-score” value is -0.135.

GCGCTAGC: the “PBM E-score” value is -0.101.

In the case of CACATTGG, the “PBM E-score” value was -0.108.

As to ATCAATCA, the “PBM E-score” value is -0.0368.

CGGCTGAA: the “PBM E-score” value is 0.183.

With ATCTGGAG, the “PBM E-score” value is 0.0635.

For TAGGTTGA, the “PBM E-score” value was -0.103.

In the case of CCGTGTGC, the “PBM E-score” value was determined as 0.254.

On to GCAAGACC, for which the “PBM E-score” value was -0.0761.

On to CCTTCGGC, for which the “PBM E-score” value amounted to 0.27.

Take CAGGTTGC: the “PBM E-score” value is -0.0853.

On to GGCCACCC, for which the “PBM E-score” value came out at 0.122.
